Measurements as given in patent publication US10299477B2 (priority 2015, dated 2019).

Experiments:
Type in all cases: in vivo
[1] = system: Blumeria graminis f sp. hordei; experiment: Test Example D: Powdery mildew on barley; details: for Test D control value (powdery mildew on barley): preventive, control value class
Text: [Test Example D] Powdery Mildew on Barley
After the sprayed dilutions were dried, conidia of Blumeria graminis f sp. hordei were inoculated to the plants by shaking off.

Plasmopara viticola = experiment: Test Example G: Downy mildew on vine; details: for Test G control value (downy mildew on vine): 250 ppm spray (2.5 ml/pot), preventive, control value class; for Test G (control value class): 250 ppm spray
Text: [Test Example G] Downy Mildew on Vine
Seeds of a test plant (grape variety: Neomuscat) were planted followed by cultivating until three to four first leaves appeared. […] After the sprayed dilutions were dried, a zoosporangia suspension (1-2×10^4 zoosporangia/ml) of Plasmopara viticola was inoculated to the plants by spraying.

Alternaia brassicicola = experiment: Test Example C: Alternaria sooty spot on cabbage; details: for Test C control value (Alternaria sooty spot on cabbage): preventive, control value class; for Test C (control value class): Alternaria sooty spot on cabbage
Text: [Test Example C] Alternaria Sooty Spot on Cabbage
Seeds of a test plant (cabbage variety: Shikidori) were planted followed by cultivating until the cotyledons extended.

Botrytis cinerea = experiment: Test Example B: Gray mold on tomato; details: for Test B control value (gray mold on tomato): preventive, control value class
Text: [Test Example B] Gray Mold on Tomato
Seeds of a test plant (tomato variety: Oogata Fukuju) were planted followed by cultivating until three to five first leaves (true leaves) appeared.

Puccinia recondita = experiment: Test Example E: Brown rust on wheat; details: for Test E control value (brown rust on wheat): preventive, control value class
Text: [Test Example E] Brown Rust on Wheat

[2] = Powdery mildew on barley, control value=100{1-(n/3)}
[3] = Downy mildew on vine, 2.5 ml/pot, evaluated 7-10 days after inoculation
[4] = Gray mold on tomato, control value=100{1-(n/3)}
[5] = Brown rust on wheat, control value=100{1-(n/3)}
[6] = powdery mildew on barley, 250 ppm spray
[7] = downy mildew on vine, Plasmopara viticola, 7-10 days after inoculation
[8] = gray mold on tomato, Botrytis cinerea, 250 ppm spray
[9] = brown rust on wheat, Puccinia recondita, 250 ppm spray

Structure (SMILES): C=CCOc1ccc(Cl)c(-c2ccc(=O)n(C)c2-c2c(F)cccc2F)c1 [Compound 314]
- Test D control value (powdery mildew on barley) ([1]; 250 ppm spray): H (H shows more than 50% of control values)
- Test G control value (downy mildew on vine) (Plasmopara viticola; 7-10 days after inoculation): H (H shows more than 50% of control values)
- Test C control value (Alternaria sooty spot on cabbage) (Alternaia brassicicola; 250 ppm spray): H (H shows more than 50% of control values)
- Test B control value (gray mold on tomato) (Botrytis cinerea; 250 ppm spray): H (H shows more than 50% of control values)
- Test E control value (brown rust on wheat) (Puccinia recondita; 250 ppm spray): H (H shows more than 50% of control values)

Structure (SMILES): CCOC(=O)COc1ccc(Cl)c(-c2ccc(=O)n(C)c2-c2c(F)cccc2F)c1 [Compound 308]
- Test D control value (powdery mildew on barley) ([1]; 250 ppm spray): L (L shows 50% or less of control values)
- Test G control value (downy mildew on vine) (Plasmopara viticola; 7-10 days after inoculation): L (L shows 50% or less of control values)
- Test C control value (Alternaria sooty spot on cabbage) (Alternaia brassicicola; 250 ppm spray): L (L shows 50% or less of control values)
- Test B control value (gray mold on tomato) (Botrytis cinerea; 250 ppm spray): H (H shows more than 50% of control values)
- Test E control value (brown rust on wheat) (Puccinia recondita; 250 ppm spray): H (H shows more than 50% of control values)

Structure (SMILES): CCn1c(-c2c(F)cc(F)cc2F)c(-c2ccccc2)ccc1=O [Compound 762]
- Test D (control value class) [1, 2]: H (H shows more than 50% of control values)
- Test G (control value class) (Plasmopara viticola; [3]): H (H shows more than 50% of control values)
- Test C (control value class) (Alternaia brassicicola; control value=100{1-(n/3)}): H (H shows more than 50% of control values)
- Test B (control value class) (Botrytis cinerea; [4]): H (H shows more than 50% of control values)
- Test E (control value class) (Puccinia recondita; [5]): H (H shows more than 50% of control values)

Structure (SMILES): CCOc1ccc(Cl)c(-c2cc(Cl)c(=O)n(CC(F)F)c2-c2c(F)cccc2F)c1 [Compound 223]
- Test D control value (powdery mildew on barley) ([1]; 250 ppm spray): H (H shows more than 50% of control values)
- Test G control value (downy mildew on vine) (Plasmopara viticola; 7-10 days after inoculation): H (H shows more than 50% of control values)
- Test C control value (Alternaria sooty spot on cabbage) (Alternaia brassicicola; 250 ppm spray): H (H shows more than 50% of control values)
- Test B control value (gray mold on tomato) (Botrytis cinerea; 250 ppm spray): H (H shows more than 50% of control values)
- Test E control value (brown rust on wheat) (Puccinia recondita; 250 ppm spray): H (H shows more than 50% of control values)

Structure (SMILES): Cc1cc(-c2cccc(Cl)c2F)c(-c2c(F)cccc2F)n(CC(F)F)c1=O [Compound 521]
- Test D (control value class) [1, 6]: H (H shows more than 50% of control values)
- Test G (control value class) (Plasmopara viticola; [7]): L (L shows 50% or less of control values)
- Test C (control value class) (Alternaia brassicicola; 250 ppm spray): H (H shows more than 50% of control values)
- Test B (control value class) (Botrytis cinerea; [8]): H (H shows more than 50% of control values)
- Test E (control value class) (Puccinia recondita; [9]): H (H shows more than 50% of control values)

Structure (SMILES): Cn1c(-c2c(F)cccc2F)c(-c2cc(F)cc(F)c2F)cc(Cl)c1=O [Compound 442]
- Test D (control value class) [1, 6]: L (L shows 50% or less of control values)
- Test G (control value class) (Plasmopara viticola; [7]): L (L shows 50% or less of control values)
- Test C (control value class) (Alternaia brassicicola; 250 ppm spray): H (H shows more than 50% of control values)
- Test B (control value class) (Botrytis cinerea; [8]): H (H shows more than 50% of control values)
- Test E (control value class) (Puccinia recondita; [9]): H (H shows more than 50% of control values)

Structure (SMILES): COc1cc(F)c(-c2c(-c3ccccc3)cc(Br)c(=O)n2C)c(F)c1 [Compound 782]
- Test D (control value class) [1, 2]: H (H shows more than 50% of control values)
- Test G (control value class) (Plasmopara viticola; [3]): H (H shows more than 50% of control values)
- Test C (control value class) (Alternaia brassicicola; control value=100{1-(n/3)}): H (H shows more than 50% of control values)
- Test B (control value class) (Botrytis cinerea; [4]): H (H shows more than 50% of control values)
- Test E (control value class) (Puccinia recondita; [5]): H (H shows more than 50% of control values)

Structure (SMILES): Cn1c(-c2c(F)cccc2F)c(-c2cc(F)cc(F)c2F)cc(Br)c1=O [Compound 443]
- Test D (control value class) [1, 6]: L (L shows 50% or less of control values)
- Test G (control value class) (Plasmopara viticola; [7]): L (L shows 50% or less of control values)
- Test C (control value class) (Alternaia brassicicola; 250 ppm spray): H (H shows more than 50% of control values)
- Test B (control value class) (Botrytis cinerea; [8]): H (H shows more than 50% of control values)
- Test E (control value class) (Puccinia recondita; [9]): H (H shows more than 50% of control values)

Structure (SMILES): COc1cc(F)c(-c2c(-c3cccc(F)c3Cl)ccc(=O)n2C)c(F)c1 [Compound 492]
- Test D (control value class) [1, 6]: H (H shows more than 50% of control values)
- Test G (control value class) (Plasmopara viticola; [7]): L (L shows 50% or less of control values)
- Test C (control value class) (Alternaia brassicicola; 250 ppm spray): H (H shows more than 50% of control values)
- Test B (control value class) (Botrytis cinerea; [8]): H (H shows more than 50% of control values)
- Test E (control value class) (Puccinia recondita; [9]): H (H shows more than 50% of control values)

Structure (SMILES): CCn1c(-c2c(F)cccc2F)c(-c2ccc(C)cc2)cc(Br)c1=O [Compound 271]
- Test D control value (powdery mildew on barley) ([1]; 250 ppm spray): H (H shows more than 50% of control values)
- Test G control value (downy mildew on vine) (Plasmopara viticola; 7-10 days after inoculation): H (H shows more than 50% of control values)
- Test C control value (Alternaria sooty spot on cabbage) (Alternaia brassicicola; 250 ppm spray): H (H shows more than 50% of control values)
- Test B control value (gray mold on tomato) (Botrytis cinerea; 250 ppm spray): H (H shows more than 50% of control values)
- Test E control value (brown rust on wheat) (Puccinia recondita; 250 ppm spray): H (H shows more than 50% of control values)

Structure (SMILES): COc1cccc(-c2cc(Cl)c(=O)n(C)c2-c2c(F)cccc2F)c1Cl [Compound 785]
- Test D (control value class) [1, 2]: H (H shows more than 50% of control values)
- Test G (control value class) (Plasmopara viticola; [3]): H (H shows more than 50% of control values)
- Test C (control value class) (Alternaia brassicicola; control value=100{1-(n/3)}): H (H shows more than 50% of control values)
- Test B (control value class) (Botrytis cinerea; [4]): H (H shows more than 50% of control values)
- Test E (control value class) (Puccinia recondita; [5]): H (H shows more than 50% of control values)

Structure (SMILES): CCn1c(-c2c(F)cc(OC)cc2F)c(-c2cc(OC)ccc2Cl)cc(Cl)c1=O [Compound 772]
- Test D (control value class) [1, 2]: H (H shows more than 50% of control values)
- Test G (control value class) (Plasmopara viticola; [3]): H (H shows more than 50% of control values)
- Test C (control value class) (Alternaia brassicicola; control value=100{1-(n/3)}): H (H shows more than 50% of control values)
- Test B (control value class) (Botrytis cinerea; [4]): H (H shows more than 50% of control values)
- Test E (control value class) (Puccinia recondita; [5]): H (H shows more than 50% of control values)

Structure (SMILES): CCn1c(-c2c(F)cc(F)cc2F)c(-c2cc(OC)cc(F)c2Cl)cc(Cl)c1=O [Compound 617]
- Test D (control value class, powdery mildew on barley) ([1]; in vivo): H (H shows more than 50% of control values)
- Test G (control value class, downy mildew on vine) (Plasmopara viticola; 250 ppm, sprayed 2.5 ml/pot before inoculation, evaluated 7-10 days after inoculation): L (L shows 50% or less of control values)
- Test C (control value class, Alternaria sooty spot on cabbage) (Alternaia brassicicola; in vivo): H (H shows more than 50% of control values)
- Test B (control value class, gray mold on tomato) (Botrytis cinerea; in vivo): H (H shows more than 50% of control values)
- Test E (control value class, brown rust on wheat) (Puccinia recondita; in vivo): H (H shows more than 50% of control values)

Structure (SMILES): Cn1c(-c2c(F)cccc2F)c(-c2cccc(F)c2Cl)ccc1=O [Compound 508]
- Test D (control value class) [1, 6]: H (H shows more than 50% of control values)
- Test G (control value class) (Plasmopara viticola; [7]): H (H shows more than 50% of control values)
- Test C (control value class) (Alternaia brassicicola; 250 ppm spray): H (H shows more than 50% of control values)
- Test B (control value class) (Botrytis cinerea; [8]): H (H shows more than 50% of control values)
- Test E (control value class) (Puccinia recondita; [9]): H (H shows more than 50% of control values)
